Test results: patent publication US20240190987A1, “Engineered EpCam Binding Antibodies” (TigaTX, priority 2021, published 2024)

System: AEPO cells
Assay: TDCC co-culture assay, AEPO
Format: cell-based, human
Settings: up to 1 nM, 69 hours
Description: Surface binding was measured on an isogenic panel of EpCAM-knockout and EpCAM-overexpressing cell lines derived from A-431, a human epidermoid carcinoma cell line (FIG. 34). AEKO and AEPO are isogenic control cell lines in which there is zero EpCAM expression (AEKO) or high EpCAM expression (AEKO-E4). AEKO is a commercially available subclone of A-431 in which human EpCAM expression is “knocked out” (disrupted) by a frameshift mutation (catalog number ab261902; Abcam, Cambridge, UK). AEPO was developed using the AEKO cell line as a starting point and restoring expression of human EpCAM by transducing with a lentiviral vector containing human EpCAM downstream of an EF1α promoter. […]
Co-culture assays were used to assess T-cell activation (CD69 upregulation), cytokine production or T-cell-dependent cellular cytotoxicity (TDCC) of target cells. […] While T cells were being processed, target cells were incubated with CellTiter-Glo 2.0 (Promega, Madison, WI) for 15 min at room temperature with shaking then read for luciferase light emission on a GloMax Explorer plate reader using default settings. Specific Cytotoxicity (%) was calculated from the relative luminescence unit values (RLU) using the formula: [1−(experimental RLU/vehicle-treated RLU))×100]. The frequency of CD69+ T-cells (%) was calculated as the percentage of CD69-positive events within the CF405M-negative population. […]

B1: Ab1070: conventional TCE containing the M37-H6L2 variant of the M37 clone (antibody)
heavy 1: EVQLVESGGGLVQPGGSLRLSCAASGFTFNTYAMNWVRQAPGKGLEWVARIRSKYNNYATYYADSVKGRFTISRDDSKSILYLQMNSLRAEDTAVYYCVRHGNFGNSYVSWFAYWGQGTLVTVSSGGGGSGGGGSGGGGSDIQVTQSPSSLSASVGDRVTITCRSSTGAVTTSNYANWVQQKPGKAFKGLIGGTNKLAPGVPSRFSGSLSGDDATLTISSLQPEDFATYYCALWYSNLWVFGQGTKLEIKGGGGS[human IgG1 Fc with changes left out]
heavy 2: EVQLVESGGGLVQPGGSLRLSCAASGFTFSNYWMNWVRQAPGKGLEWVAQIRVKSENFATHYADSVKGRFTISRDDSKSTVYLQMNSLRAEDTAVYYCTLYDGFSWGQGTLVTVSSASTKGPSVFPLAPSSKSTSGGTAALGCLVKDYFPEPVTVSWNSGALTSGVHTFPAVLQSSGLYSLSSVVTVPSSSLGTQTYICNVNHKPSNTKVDKKV[human IgG1 Fc with changes left out]
light: DIQMTQSPSSLSASVGDRVTITCSASSSVSSGNFHWYQQKPGKAPKLLIYRTSNLASGVPSRFSGSGSGTDYTLTISSLQPEDFATYYCQQWSGYPYTFGQGTKVEIKRTVAAPSVFIFPPSDEQLKSGTASVVCLLNNFYPREAKVQWKVDNALQSGNSQESVTEQDSKDSTYSLSSTLTLSKADYEKHKVYACEVTHQGLSSPVTKSFNRGEC
modifications: REGION 1..482: note = Ab1070 Knob HC; REGION 1..446: note = Ab1070 Hole HC; REGION 1..215: note = Ab1070 Hole LC
notes: conventional TCE containing the M37-H6L2 variant of the M37 clone
With B1 the “TDCC of AEPO target cells” value was “killed by TDCC”.
